From publication PMC6919601, “Identification of Plasmodium dipeptidyl aminopeptidase allosteric inhibitors by high throughput screening” (PLoS ONE, 2019)
Hit rate of the full screen: of about 110,000 compounds, about 230 (0.21%) showed an effect of 50% or more. The list shows a part of the results.

What follows are compounds tested against DPAP1 (Plasmodium falciparum, UniProt Q8IIJ9) (assay: primary screen, percent inhibition; read by cleavage of a fluorogenic dipeptide substrate; higher = more effect of the substance).
Set-up: species or system P. falciparum D10 trophozoite lysates; single well
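Note: 30 min substrate incubation versus DMSO and 10 µM JCP410 controls.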

DPAP1, sequence (Q8IIJ9 whole entry, looked up): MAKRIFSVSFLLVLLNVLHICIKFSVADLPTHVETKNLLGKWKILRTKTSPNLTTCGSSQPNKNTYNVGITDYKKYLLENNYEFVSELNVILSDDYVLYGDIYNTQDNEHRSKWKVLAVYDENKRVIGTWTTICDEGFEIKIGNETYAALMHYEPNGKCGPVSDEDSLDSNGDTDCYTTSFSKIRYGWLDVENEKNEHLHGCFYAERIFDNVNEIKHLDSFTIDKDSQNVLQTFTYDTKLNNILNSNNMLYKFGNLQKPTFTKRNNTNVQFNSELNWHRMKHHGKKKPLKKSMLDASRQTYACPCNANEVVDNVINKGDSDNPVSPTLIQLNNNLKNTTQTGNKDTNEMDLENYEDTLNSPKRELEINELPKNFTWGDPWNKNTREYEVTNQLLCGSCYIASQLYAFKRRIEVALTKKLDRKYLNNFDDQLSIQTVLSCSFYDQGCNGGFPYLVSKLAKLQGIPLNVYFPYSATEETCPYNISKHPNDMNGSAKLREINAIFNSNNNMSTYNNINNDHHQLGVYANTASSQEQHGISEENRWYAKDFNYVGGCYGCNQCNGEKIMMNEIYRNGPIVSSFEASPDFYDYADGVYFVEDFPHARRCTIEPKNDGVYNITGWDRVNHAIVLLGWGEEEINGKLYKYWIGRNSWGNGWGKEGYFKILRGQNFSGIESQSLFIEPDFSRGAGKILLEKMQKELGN

| Compound | % Inhibition @ 10 uM |
| --- | --- |
| CC1CCCCC1NC(=O)C1CCCN(S(C)(=O)=O)C1 (stereo not shown) | -2.99% |
| COc1cccc(C(=O)Nc2sc3c(c2C(N)=O)CCCCCC3)c1 | -5.84% |
| Cc1oc(-c2ccccc2F)nc1CS(=O)CC(=O)NCc1cccnc1 (stereo not shown) | -1.05% |
| COc1ccccc1C1C(C#N)=C(N)Oc2cc(N)ccc21 (stereo not shown) | -2% |
| Cc1oc(-c2cccc(Cl)c2)nc1CN1CCCC(C(=O)NC(C)C)C1 (stereo not shown) | 2.37% |
| O=C(/C=C/c1ccc2c(c1)OCO2)/C=C/c1ccc2c(c1)OCO2 | -3.74% |
| N#CC1=C(N)Oc2c(oc(CO)cc2=O)C1c1ccccc1Br (stereo not shown) | -2.77% |
| COc1ccc(C(=O)O)cc1S(=O)(=O)N1CCCCCC1 | -1.41% |
| COc1cc(C2NC(C(=O)O)Cc3c2[nH]c2ccccc32)cc(OC)c1OC (stereo not shown) | 1.29% |
| O=C(Nc1ccccc1C(=O)NCCCCO)c1ccc(Cl)cc1Cl | 18.3% |
| COc1ccc(-c2nc(C(Cl)(Cl)Cl)nc(C(Cl)(Cl)Cl)n2)cc1 | 5.98% |
| Cc1cc(C)c2nc(N3CCCC(C(=O)N4CCN(c5ncccn5)CC4)C3)sc2c1 (stereo not shown) | 6.46% |
| O=C(COc1cccc(Br)c1)Nc1ccc(N2CCCCC2)cc1 | -14.3% |
| CC(C)(C)C1CCC(N2CCC(C(N)=O)CC2)CC1 (stereo not shown) | -1.82% |
| O=C(CC1(c2ccccc2)C(=O)c2ccccc2C1=O)Nc1c(Cl)cccc1Cl | 1.7% |
| Cc1cc(C)nc(NC(=O)c2ccc(Br)cc2)n1 | -3.45% |
| CCOC(=O)C1=C(CSc2nc3c(cc2C#N)CCC3)OC(N)=C(C#N)C1c1cccs1 (stereo not shown) | 3.39% |
| CC(C)NC(=O)c1cc2ccccc2oc1=O | -7.33% |
| COc1ccc(-c2c(C)s/c(=N\C(=O)c3cccc(OC)c3)n2C)cc1 | 0.324% |
| COc1ccc(C(=O)Nc2c3c(nn2-c2ccc(C)cc2)CS(=O)(=O)C3)cc1OC | 1.62% |
| CCN(CC)CCn1c2ccccc2c2nnc(S)nc21 | 30.9% |
| COc1ccccc1C(C1C(=O)CC(C)(C)CC1=O)C1C(=O)CC(C)(C)CC1=O | 1.2% |
| CCSc1sc(CC)cc1C1C2=C(O)CCCC2=NC(C)=C1C(=O)Nc1cccnc1 (stereo not shown) | 0.484% |
| CCCCC1CCC(C(=O)N(Cc2ccccc2F)C2CCS(=O)(=O)C2)CC1 (stereo not shown) | 6.67% |
| COc1cccc(C2=CC(c3cccc(OC)c3OC)n3c(nc4ccccc43)N2)c1 (stereo not shown) | 0.0842% |

| Compound | % Inhibition @ 10 uM |
| --- | --- |
| NC(=O)c1c(NC(=O)c2nc(S(=O)(=O)Cc3ccccc3)ncc2Cl)sc2c1CCCC2 | 4% |
| COc1ccc(C2CC(C(F)(F)F)n3nc(C(=O)N(C)Cc4cn(C)nc4C)c(Cl)c3N2)cc1 (stereo not shown) | 2.32% |
| O=[N+]([O-])c1cc(CN2CCCCCC2)ccc1O | -4.04% |
| CN(Cc1ccc(N(C)C)cc1)CC(O)c1ccccc1 (stereo not shown) | -5.31% |
| CCOC(=O)N1CCN(CC(O)COc2cc(C)c(Cl)c(C)c2)CC1 (stereo not shown) | -1.26% |
| CC(C)(C)c1ccc(-c2nc(NCc3cccnc3)c3ccccc3n2)cc1 | 2.03% |
| CCOc1ccc(-n2c(C)nnc2SCc2nc(-c3ccc(OC)cc3)no2)cc1 | -5.91% |
| CC(C)CC(C(=O)NCC#N)n1cnc2c(NCCN3CCOCC3)ncnc21 (stereo not shown) | 0.173% |
| Cc1ccc(NC(=O)c2noc3c2COc2ccc(C)cc2-3)nc1 | -2.61% |
| Cn1c(=O)[nH]c(=O)c2c1nc(Br)n2CCN1C(=O)c2ccccc2C1=O | 4.86% |
| COc1ccc(NC(=S)NC(=O)c2ccccc2)cc1 | -0.415% |
| CCc1ccccc1NC(=O)c1ccc(N2C(=O)c3ccccc3C2=O)cc1 | -1.38% |
| Cc1ccccc1C1CC(=O)N2CN(Cc3ccccc3)CSC2=C1C#N (stereo not shown) | 31.2% |
| COC(=O)c1c(C)oc2ccc(O)c(CN3CCOCC3)c12 | -4.82% |
| Cc1cc(Nc2ccccc2)cc(=O)n1C | 0.727% |
| O=C(CSc1nc2ccccc2o1)Nc1ccccc1F | 2.48% |
| CC1(C)CC(NS(C)(=O)=O)CC(C)(C)N1OC(=O)c1ccccc1 | 1.03% |
| CCc1c(CN2CCN(C3CCCCC3)CC2)csc1C | -7.94% |
| O=S(=O)(c1cccc2n[se]nc12)N1CCOCC1 | 6.59% |
| COc1ccc(S(=O)(=O)N(CC(=O)NC2CC2)c2ccc(C)cc2)cc1Br | -5.66% |
| COc1ccccc1N1CCN(C(=O)c2ccccc2N(Cc2ccccc2)S(C)(=O)=O)CC1 | 0.635% |
| CCOc1ccccc1-n1nnc(-c2nc(-c3cccs3)no2)c1N | 3.98% |
| O=C(CC1Nc2ccccc2NC1=O)Nc1ccccc1C(F)(F)F (stereo not shown) | 5.39% |
| O=C(NCc1ccncc1)c1nnc(Cc2ccccc2Cl)o1 | -0.0709% |
